The source gives no read counts; variants with many changes may rest on few reads.
B1: LINE1-mini (parent)
chain: GGCAGAGCUCAACACAGCGUGGCAAAGUGGCUGUGGCUAGACUGCC

Variants of: B1
Assay: self-cleavage, relative activity (ratio to wild type); higher = more cleavage; in vitro, sequencing; the parent is a self-cleaving ribozyme

| Variant | self-cleavage |
| --- | --- |
| C8U C10G C13G A16U C23G G27U G30U | 0.01 |
| C8U C31G A41G C45A | 0.08 |
| C8U G30A A41C | 0.1 |
| C8U C10A A26C G30C | 0.01 |
| C8U A25U G27A C31A C37G | 0.48 |
| C8U C15G G30A U38A | 0.23 |
| C8U C23U G30A C42A | 0.03 |
| C8U C15A G22A C37U | 0.18 |
| C8U C10A A14U C45A | 0.04 |
| C8U G19C C46U | 0.11 |
| C8U C31A C45U | 0.18 |
| C8U U20G C23G G40U | 0.41 |
| C8U G19C U28A G36C G44U | 0.1 |
| C8U U9A G19A A24G G40U | 0.1 |
| C8U C15U U20G G40U | 0.06 |
| C8U C10U A14C G17U G19A U28A | 0.09 |
| C8U G21C G27A U32C | 0.16 |
| C8U G40U G44C | 0.34 |
| C8U U9C U20C C45A | 0.01 |
| C8U A26U C37U | 0.56 |
| C8U A39U G44A | 0.04 |
| C8U U20C A26G | 0.02 |
| C8U G27C G33A G35U | 0.03 |
| C8U C15U C18G | 0.45 |

| Variant | self-cleavage |
| --- | --- |
| C8U G17A A24C | 0.42 |
| C8U C10U G22U | 0.05 |
| C8U A25U A26G U43A | 0.16 |
| C8U U9C G17A C18G G29U U34C G35A | 0.05 |
| C8U A24C G29A | 0.15 |
| C8U A24C G29U | 0.07 |
| C8U U9A U28A C31G G44U | 0.06 |
| C8U U28C G40U U43G | 0.23 |
| C8U U9C A16C U20A | 0.01 |
| C8U G19U A41U | 0.04 |
| C8U C23U G44U | 0.08 |
| U9A A11U A24U A26U C31G | 0 |
| C8U C18A G21A G22C G33A A41U | 0.09 |
| C8U G40C U43C | 0.09 |
| C8U C23U C37U | 0.09 |
| C8U G22U G27C | 0.15 |
| C8U C10U U20G C46U | 0.07 |
| C8U U9A C31G U32A U34A | 0.23 |
| C8U C15A G27A | 0.07 |
| C8U A16U G40C | 0.02 |
| C8U G30C C37G | 0.14 |
| C8U C13G U38A | 0.02 |
| C8U C23U U38C | 0.44 |
| C8U C23G C37U | 0.05 |

| Variant | self-cleavage |
| --- | --- |
| C8U C23A U28C U38A | 0.04 |
| C8U G17A G21A G33C G44A | 0.1 |
| C8U C15A G27A C31A G44A C46U | 0.41 |
| C8U C23A A41C | 0.08 |
| C8U U20G G33U A41U | 0.04 |
| C8U U28A G36C | 0.18 |
| C8U C15A G22A A26G | 0.11 |
| C8U C18A A26G | 0.18 |
| C8U C10G A14C | 0 |
| C8U C13U G17A G21A G27C | 0.25 |
| C8U U34C C37A | 0.05 |
| C8U U9C G22A C37G A41G C45A C46A | 0.01 |
| C8U G17U G22U | 0.66 |
| U9A A11C C13U A25C G27U | 0.02 |
| C8U G19C G40U C42U | 0.2 |
| C8U C18A U20C A25C | 0.87 |
| C8U G17C U28A | 0.31 |
| C8U G36U C46A | 0.2 |
| C8U C13U A14U G30U | 0.45 |
| C8U G17C C18U G19U G33C C42G | 0.01 |
| C8U G17C C31U C42G C45U | 0.14 |
| C8U C10U C18A C23A G29U A41C | 0.03 |
| C8U G19U U32G A39U | 0.07 |
| C8U G36U G40U C42G C45G | 0.26 |

| Variant | self-cleavage |
| --- | --- |
| C8U C13A A14U A39G G40U | 0.06 |
| C8U C10A C15U A26U G29C G30A A41C G44U | 0.02 |
| C8U U9A G17U A26G G30A C46A | 0.05 |
| C8U C18A G21U | 1.26 |
| C8U C10U C13G A26U C31A C42G U43C C46G | 0.04 |
| C8U G17A U34C G40U C42A C46G | 0.11 |
| C8U G19U A24U U34C | 0.12 |
| C8U C15U C18U G27U | 0.07 |
| C8U C10A G27A U34A | 0.03 |
| C8U A24C A26G | 0.39 |
| C8U C10G G30U | 0.02 |
| U9A A11U C31G | 0.02 |
| C8U C15A G36C A39C | 0.05 |
| C8U C23U A25U | 0.15 |
| C8U C15U C18A G33U | 0.24 |
| C8U G27C G35C C42U | 0.12 |
| C8U G30A G35C U43C | 0.5 |
| C8U G21U G22A | 0.05 |
| C8U C13A A26G | 0.33 |
| U9A A12U A16U C18U G22A U28C C31A | 0.01 |
| C8U U9C A26G C31G | 0.02 |
| C8U C10G U28C G36U U43C | 0.01 |
| C8U C23U G27U U32C | 0.55 |
| C8U U32A C37G | 0.26 |

| Variant | self-cleavage |
| --- | --- |
| U9A A12G A26U G27A | 0.04 |
| C8U C15U C23A U28C G36C C46G | 0.1 |
| C8U G19A C46G | 0 |
| C8U C18U U20A | 0.11 |
| C8U C31U C46U | 0.14 |
| C8U C23U A41U | 0.42 |
| C8U C15U C23A G27U | 0.59 |
| C8U U9C C10A C31G G33A C37G | 0.02 |
| C8U U20C G21U U28A | 0.09 |
| C8U C23A A25C G35U G36A U38C | 0.09 |
| C8U A24G G29U C37U U38A | 0.27 |
| C8U C18A G27U G35U G40U C45A | 0.21 |
| C8U U43G C45U | 0.17 |
| C8U C15U C42G | 0.23 |
| U9A A12C A16G A24C U34G | 0.03 |
| C8U A25U G27A G40U | 0.34 |
| C8U C13A A16G G22C C23A G40C C46G | 0 |
| C8U C10A G27A | 0.03 |
| C8U G35A G40C | 0.04 |
| U9A A11G C42U | 0.01 |
| C8U U9C G22A G36U C45A | 0.01 |
| C8U A39C C42U | 0.15 |
| C8U G36C A41C | 0.18 |
| C8U C10A C13A C15A G29U U38G | 0.03 |

| Variant | self-cleavage |
| --- | --- |
| C8U G27A G29U | 0.07 |
| U9A A11G C18G C37G | 0 |
| C8U G22C C37A | 0.18 |
| U9A A11G C15G G30U | 0.03 |
| C8U G21C U38C | 0.06 |
| U9A A12G G22C C23A | 0.08 |
| C8U C15G C31U | 0.21 |
| C8U G19C G30A | 0.19 |
| C8U G27A U28A | 0.18 |
| C8U A16U G33A | 0.05 |
| C8U C15A C18A | 0.09 |
| C8U C10A A26U | 0.01 |
| C8U U28C G40C | 0.08 |
| C8U C23A G40U | 0.03 |
| U9A A11U C15A A25G U32C G33A C37A | 0.02 |
| C8U U20A G22C C23G G44U | 0.04 |
| C8U U9C G33U G35A | 0.03 |
| C8U C13G A26G A41C | 0.03 |
| C8U G30A U32G A41G | 0.06 |
| C8U C10G A24U | 0.04 |
| C8U G17A U20A | 0.02 |
| C8U C15A A26U U28A G36C C45A | 0.05 |
| C8U A25C G27U G29C A39G | 0.01 |
| C8U U20A G35A C42U | 0.1 |

| Variant | self-cleavage |
| --- | --- |
| U9A A11C C18A G22C U34A | 0.02 |
| C8U C10A G29A U43C | 0.01 |
| C8U G40U C42U | 0.19 |
| C8U G40U C42A | 0.08 |
| C8U G19A G27U | 0.77 |
| C8U U28G G44U | 0.41 |
| C8U C10A G19U U20A | 0.03 |
| C8U C18U G27A | 0.14 |
| C8U G22U C42U | 0.09 |
| C8U U9A G19A | 0.32 |
| C8U U9A A12U G21C G30U | 0.09 |
| C8U A39G A41C U43G | 0.58 |
| C8U C10U C23G A24C C37U | 0.02 |
| C8U C13U C18A C37U | 0.42 |
| C8U G19C G29A C37G | 0.03 |
| C8U U9G G19A | 0.32 |
| C8U C15U G27U C31U | 0.06 |
| C8U G17C C42A | 0.03 |
| C8U C15G G29U U38G | 0.03 |
| C8U A25U G40A A41C | 0.02 |
| C8U G27U G30C C37U | 0.01 |
| C8U G22C G30U G44C | 0.05 |
| C8U U9G G17U C37G | 0.04 |

Source: the RNAGym collection of RNA variant scans (doi:10.7554/elife.90254)
